# Laboratory results as given in the supplement of paper PMC12217912.
# The list shows a part of the results. Sequences were assembled here from the parent chain. Inactive controls read about 0.05.
# B1: TEV protease; numbered along this chain (parent)
# chain: MGESLFKGPRDYNPISSSICHLTNESDGHTTSLYGIGFGPFIITNKHLFRRNNGTLVVQSLHGVFKVKDTTTLQQHLVDGRDMIIIRMPKDFPPFPQKLKFREPQREERICLVTTNFQTKSMSSMVSDTSCTFPSGDGIFWKHWIQTKDGQCGSPLVSTRDGFIVGIHSASNFTNTNNYFTSVPKNFMELLTNQEAQQWVSGWRLNADSVLWGGHKVFMVKPEEPFQPVKEATQL
# Variants of: B1
# Test: raw area under fraction-flipped curve 0-4 h after induction (AUC4h, not background-subtracted), DNA-recorder readout of cleavage of the substrate (dimensionless); higher = more cleavage of the substrate by the protease variant
# Conditions: temperature: 34 °C; time window: 0-4 h after rhamnose induction
# Experimental: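 In vivo DNA recorder in E. coli TOP10(DE3) ΔrhaA at 34 °C. Each TEVp single-site mutant (parent TEVp 0) is paired with a single-site variant of the 7-mer TEVs (canonical ENLYFQ|S). The substrate sits between flexible linkers in a Bxb1-sfGFP-TEVs-SsrA fusion, so cleavage stabilises Bxb1 and speeds flipping of a recombination array, read by NGS. The value is the raw area under the fraction-flipped curve over 0-4 h after rhamnose induction (AUC4h), with ≥20 reads per time point. It is not background-subtracted; inactive controls average about 0.047.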
# 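Note: Bxb1 expression induced with 0.2% (w/v) L-rhamnose at OD600 near 0.5, cultures sampled hourly, flipped fraction per protease–substrate barcode pair counted by paired-end Illumina sequencing.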
Variant,area with substrate ENLAFQS,area with substrate ENLDFQS,area with substrate ENLEFQS,area with substrate ENLFFQS,area with substrate ENLHFQS,area with substrate ENLIFQS,area with substrate ENLLFQS,area with substrate ENLNFQS,area with substrate ENLPFQS,area with substrate ENLRFQS,area with substrate ENLSFQS,area with substrate ENLWFQS,area with substrate ENLCFQS,area with substrate ENLKFQS,area with substrate ENLQFQS,area with substrate ENLVFQS,area with substrate ENLMFQS,area with substrate ENLGFQS,area with substrate ENLTFQS
G39T,0.0387,0.0394,0.0403,0.0469,0.0395,0.0278,0.0376,0.0394,0.0616,0.0286,0.0281,0.0588,–,–,–,–,–,–,–
G39C,0.0376,0.0424,0.05,0.0496,0.0555,0.0317,0.0499,0.0527,0.0501,0.0551,0.04,0.0406,0.0469,0.0523,0.0542,0.0208,–,–,–
G39H,0.0495,0.0405,0.0627,0.0477,0.046,0.0472,0.0318,0.0415,0.0466,0.0466,0.0403,0.0461,0.0514,0.0463,0.039,0.0452,0.0423,–,–
P14D,0.0672,0.0615,0.0654,0.0837,0.0751,0.0785,0.0919,0.0575,0.062,–,0.0657,0.0915,0.0697,0.0777,0.108,–,0.0914,0.058,–
P14G,0.0646,0.0539,0.0679,0.09,0.0442,0.0877,0.0816,0.0688,–,0.0749,0.0671,0.0886,–,0.0534,0.075,0.0758,–,0.0765,–
P14N,0.0693,0.0686,–,0.0893,0.0579,0.117,–,0.0673,–,0.0761,0.0491,0.0493,0.0809,0.0667,0.0551,–,0.0582,–,–
S18E,0.0473,0.028,0.0572,0.0768,0.0635,–,–,0.0568,0.0525,0.0916,0.0527,0.0721,0.0753,0.0784,–,–,–,–,–
S18W,0.0429,0.0629,0.0631,0.066,0.0628,–,0.0803,–,0.0656,0.0649,0.077,0.0877,0.058,0.0669,–,–,0.0642,–,–
G2D,0.0769,0.0578,0.0567,0.0736,0.0673,–,0.0719,0.0476,0.057,0.0751,0.0808,0.0916,0.0741,0.0787,0.0735,–,–,–,0.0589
I19S,0.0672,0.0636,–,–,–,–,–,0.054,–,–,0.0616,0.0625,–,0.0584,–,–,–,–,–
I19N,0.0893,0.0456,0.055,0.0723,0.0731,–,0.0539,0.0538,0.0495,0.0466,0.0395,0.0527,0.0705,0.0606,0.0543,0.0663,0.0349,–,–
I19M,0.0738,0.0629,0.0362,0.0818,0.0774,0.0773,0.0793,0.0641,0.0663,–,0.0699,0.0554,0.0588,0.0816,0.106,0.0525,0.0685,0.072,–
